# Experimental data reported in the supplement of paper PMC8728848.
# This is one part of the list.
# What was measured:
# Test in all cases: glycan array binding signal (z-score within array); higher = stronger binding
# Details in all cases: glycan notation: IUPAC condensed, linker removed
# [1] = target: GlcNAc(b1-3)Gal(b1-4)GlcNAc(b1-3)Gal(b1-4)GlcNAc(b1-3)Gal(b1-4)GlcNAc(b1-3)Gal(b1-4)GlcNAc(b1-2)[GlcNAc(b1-3)Gal(b1-4)GlcNAc(b1-3)Gal(b1-4)GlcNAc(b1-3)Gal(b1-4)GlcNAc(b1-3)Gal(b1-4)GlcNAc(b1-6)]Man(a1-6)[GlcNAc(b1-3)Gal(b1-4)GlcNAc(b1-3)Gal(b1-4)GlcNAc(b1-3)Gal(b1-4)GlcNAc(b1-3)Gal(b1-4)GlcNAc(b1-2)Man(a1-3)]Man(b1-4)GlcNAc(b1-4)[Fuc(a1-6)]GlcNAc
# In short: (§1)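 Arrays were curated from the Consortium for Functional Glycomics database, 3228 in total, and kept only where the protein sequence was available. Binding is expressed as a within-array Z-score. This score was averaged across arrays of the same protein sequence at different concentrations or buffers and across linkers, and negative values can be read as non-binding.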
# [2] = target: GlcNAc(b1-3)Gal(b1-4)GlcNAc(b1-3)Gal(b1-4)GlcNAc(b1-3)GalNAc
# In short: as §1
# [3] = target: GlcNAc(b1-3)Gal(b1-4)GlcNAc(b1-3)GalNAc
# In short: as §1
# [4] = target: GlcNAc(b1-3)Gal(b1-4)GlcNAc(b1-3)[GlcNAc(b1-3)Gal(b1-4)GlcNAc(b1-3)]GalNAc
# In short: as §1
# [5] = target: GlcNAc(b1-3)Gal(b1-4)GlcNAc(b1-6)[Gal(b1-3)]GalNAc
# In short: as §1
# [6] = target: GlcNAc(b1-3)Gal(b1-4)GlcNAc(b1-6)[GlcNAc(b1-3)Gal(b1-3)]GalNAc
# In short: as §1
# [7] = target: GlcNAc(b1-3)Gal(b1-4)GlcNAc(b1-6)[GlcNAc(b1-3)]Gal(b1-4)GlcNAc
# In short: as §1
# GlcNAc(b1-3)GalNAc = target: GlcNAc(b1-3)GalNAc
# In short: as §1
# GlcNAc(b1-3)Man = target: GlcNAc(b1-3)Man
# In short: as §1
# [8] = target: GlcNAc(b1-3)[GlcNAc(b1-4)][GlcNAc(b1-6)]GlcNAc
# In short: as §1
# [9] = target: GlcNAc(b1-3)[GlcNAc(b1-6)]Gal(b1-4)GlcNAc
# In short: as §1
# [10] = target: GlcNAc(b1-3)[GlcNAc(b1-6)]GalNAc
# In short: as §1
# [11] = target: GlcNAc(b1-4)Gal(b1-4)GlcNAc
# In short: as §1
# GlcNAc(b1-4)GlcNAc = target: GlcNAc(b1-4)GlcNAc
# In short: as §1
# [12] = target: GlcNAc(b1-4)GlcNAc(b1-4)GlcNAc
# In short: as §1
# [13] = target: GlcNAc(b1-4)GlcNAc(b1-4)GlcNAc(b1-4)GlcNAc(b1-4)GlcNAc
# In short: as §1
# [14] = target: GlcNAc(b1-4)GlcNAc(b1-4)GlcNAc(b1-4)GlcNAc(b1-4)GlcNAc(b1-4)GlcNAc
# In short: as §1
# [15] = target: GlcNAc(b1-4)[GlcNAc(b1-6)]GalNAc
# In short: as §1
# [16] = target: GlcNAc(b1-6)Gal(b1-4)GlcNAc
# In short: as §1
# GlcNAc(b1-6)GalNAc = target: GlcNAc(b1-6)GalNAc
# In short: as §1
# [17] = target: GlcNAc6S(b1-3)Gal(b1-4)GlcNAc
# In short: as §1
# Kdn(a2-3)Gal(b1-3)GalNAc = target: Kdn(a2-3)Gal(b1-3)GalNAc
# In short: as §1
# Kdn(a2-3)Gal(b1-3)GlcNAc = target: Kdn(a2-3)Gal(b1-3)GlcNAc
# In short: as §1
# Kdn(a2-3)Gal(b1-4)Glc = target: Kdn(a2-3)Gal(b1-4)Glc
# In short: as §1
# Kdn(a2-3)Gal(b1-4)GlcNAc = target: Kdn(a2-3)Gal(b1-4)GlcNAc
# In short: as §1
# [18] = target: Kdn(a2-3)Gal(b1-4)[Fuc(a1-3)]GlcNAc
# In short: as §1
# Kdn(a2-6)Gal(b1-4)GlcNAc = target: Kdn(a2-6)Gal(b1-4)GlcNAc
# In short: as §1
# [19] = target: Man(a1-2)Man(a1-2)Man(a1-3)Man
# In short: as §1
# [20] = target: Man(a1-2)Man(a1-2)Man(a1-6)[Man(a1-3)]Man
# In short: as §1
# Man(a1-2)Man(a1-3)Man = target: Man(a1-2)Man(a1-3)Man
# In short: as §1
# [21] = target: Man(a1-2)Man(a1-3)[Man(a1-2)Man(a1-6)]Man
# In short: as §1
# [22] = target: Man(a1-2)Man(a1-3)[Man(a1-2)Man(a1-6)]Man(a1-6)[Man(a1-2)Man(a1-2)Man(a1-3)]Man
# In short: as §1
# [23] = target: Man(a1-2)Man(a1-3)[Man(a1-2)Man(a1-6)]Man(a1-6)[Man(a1-2)Man(a1-2)Man(a1-3)]Man(b1-4)GlcNAc(b1-4)GlcNAc
# In short: as §1
# [24] = target: Man(a1-2)Man(a1-3)[Man(a1-6)]Man(a1-6)[Man(a1-2)Man(a1-3)]Man(b1-4)GlcNAc(b1-4)GlcNAc
# In short: as §1
# [25] = target: Man(a1-2)Man(a1-6)[Man(a1-3)]Man(a1-6)[Man(a1-2)Man(a1-2)Man(a1-3)]Man
# In short: as §1
# [26] = target: Man(a1-2)Man(a1-6)[Man(a1-3)]Man(a1-6)[Man(a1-2)Man(a1-2)Man(a1-3)]Man(b1-4)GlcNAc(b1-4)GlcNAc
# In short: as §1
# Man(a1-3)[Man(a1-6)]Man = target: Man(a1-3)[Man(a1-6)]Man
# In short: as §1
binder,measurement,setting,value
"Siglec-E (Mus musculus), Q91Y57 (protein) MLLLLLLLLLWGIKGVEGQNPQEVFTLNVERKVVVQEGLCVLVPCNFSYLKKRLTDWTDSDPVHGFWYREGTDRRKDSIVATNNPIRKAVKETRNRFFLLGDPWRNDCSLNIREIRKKDAGLYFFRLERGKTKYNYMWDKMTLVVTALTNTPQILLPETLEAGHPSNLTCSVPWDCGWTAPPIFSWTGTSVSFLSTNTTGSSVLTITPQPQDHGTNLTCQVTLPGTNVSTRMTTRLNVSYAPKNLTVTIYQGADSVSTILKNGSSLPISEGQSLRLICSTDSYPPANLSWSWDNLTLCPSKLSKPGLLELFPVHLKHGGVYTCQAQHALGSQHISLSLSPQSSATLSEMMMGTFVGSGVTALLFLSVCILLLAVRSYRRKPARPAVVAPHPDALKVSVSQNPLVESQADDSSEPLPSILEAAPSSTEEEIHYATLSFHEMKPMNLWGQQDTTTEYSEIKFPQRTAWP",glycan array binding signal (z-score),[1],-0.472
same,glycan array binding signal (z-score),[2],-0.504
same,glycan array binding signal (z-score),[3],-0.29
same,glycan array binding signal (z-score),[4],-0.411
same,glycan array binding signal (z-score),[5],-0.279
same,glycan array binding signal (z-score),[6],-0.573
same,glycan array binding signal (z-score),[7],-0.633
same,glycan array binding signal (z-score),GlcNAc(b1-3)GalNAc,-0.515
same,glycan array binding signal (z-score),GlcNAc(b1-3)Man,-0.12
same,glycan array binding signal (z-score),[8],-0.115
same,glycan array binding signal (z-score),[9],-0.576
same,glycan array binding signal (z-score),[10],-0.05
same,glycan array binding signal (z-score),[11],-0.002
same,glycan array binding signal (z-score),GlcNAc(b1-4)GlcNAc,-0.058
same,glycan array binding signal (z-score),[12],-0.36
same,glycan array binding signal (z-score),[13],-0.319
same,glycan array binding signal (z-score),[14],-0.645
same,glycan array binding signal (z-score),[15],-0.418
same,glycan array binding signal (z-score),[16],-0.305
same,glycan array binding signal (z-score),GlcNAc(b1-6)GalNAc,-0.207
same,glycan array binding signal (z-score),[17],-0.437
same,glycan array binding signal (z-score),Kdn(a2-3)Gal(b1-3)GalNAc,-0.459
same,glycan array binding signal (z-score),Kdn(a2-3)Gal(b1-3)GlcNAc,-0.25
same,glycan array binding signal (z-score),Kdn(a2-3)Gal(b1-4)Glc,0.059
same,glycan array binding signal (z-score),Kdn(a2-3)Gal(b1-4)GlcNAc,-0.424
same,glycan array binding signal (z-score),[18],0.226
same,glycan array binding signal (z-score),Kdn(a2-6)Gal(b1-4)GlcNAc,-0.105
same,glycan array binding signal (z-score),[19],-0.422
same,glycan array binding signal (z-score),[20],-0.341
same,glycan array binding signal (z-score),Man(a1-2)Man(a1-3)Man,0.246
same,glycan array binding signal (z-score),[21],-0.477
same,glycan array binding signal (z-score),[22],-0.181
same,glycan array binding signal (z-score),[23],-0.574
same,glycan array binding signal (z-score),[24],-0.61
same,glycan array binding signal (z-score),[25],-0.285
same,glycan array binding signal (z-score),[26],-0.01
same,glycan array binding signal (z-score),Man(a1-3)[Man(a1-6)]Man,0.027
